To fix the notation:
T1: RBFOX1 RRM (Homo sapiens, UniProt Q9NWB1 109-208)
T1 sequence: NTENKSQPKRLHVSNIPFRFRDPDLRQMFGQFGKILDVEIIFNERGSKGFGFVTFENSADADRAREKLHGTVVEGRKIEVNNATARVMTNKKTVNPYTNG

B1: UGUGACG (DNA:RNA)
RNA: GGGAGACCGGAAUUCAGAUUGUCCUGUGACGUUAAAUCCCGUCGUAGCCACCA
DNA 1: CAATCTGAATTCCGGTCTCCC
DNA 2: TGGTGGCTACGACGGGATT
B2: AGCACGA (DNA:RNA)
RNA: B1 RNA with U25A, U27C, G28A, A29C, C30G, G31A
DNA 1: CAATCTGAATTCCGGTCTCCC
DNA 2: TGGTGGCTACGACGGGATT
B3: GCGCCAA (DNA:RNA)
RNA: GGGAGACCGGAAUUCAGAUUGUCCGCGCCAAUUAAAUCCCGUCGUAGCCACCA
DNA 1: CAATCTGAATTCCGGTCTCCC
DNA 2: TGGTGGCTACGACGGGATT
B4: GUAGUGU (DNA:RNA)
RNA: B3 RNA with C26U, G27A, C28G, C29U, A30G, A31U
DNA 1: CAATCTGAATTCCGGTCTCCC
DNA 2: TGGTGGCTACGACGGGATT
B5: UCACGCG (DNA:RNA)
RNA: B1 RNA with G26C, U27A, G28C, A29G
DNA 1: CAATCTGAATTCCGGTCTCCC
DNA 2: TGGTGGCTACGACGGGATT
B6: AUGAUUU (DNA:RNA)
RNA: B3 RNA with G25A, C26U, C28A, C29U, A30U, A31U
DNA 1: CAATCTGAATTCCGGTCTCCC
DNA 2: TGGTGGCTACGACGGGATT
B7: GAACAAU (DNA:RNA)
RNA: B3 RNA with C26A, G27A, C29A, A31U
DNA 1: CAATCTGAATTCCGGTCTCCC
DNA 2: TGGTGGCTACGACGGGATT
B8: CCUUCAC (DNA:RNA)
RNA: B3 RNA with G25C, G27U, C28U, A31C
DNA 1: CAATCTGAATTCCGGTCTCCC
DNA 2: TGGTGGCTACGACGGGATT
B9: UGUUAGC (DNA:RNA)
RNA: B1 RNA with G28U, C30G, G31C
DNA 1: CAATCTGAATTCCGGTCTCCC
DNA 2: TGGTGGCTACGACGGGATT
B10: AGCCAGC (DNA:RNA)
RNA: B1 RNA with U25A, U27C, G28C, C30G, G31C
DNA 1: CAATCTGAATTCCGGTCTCCC
DNA 2: TGGTGGCTACGACGGGATT
B11: GCGACGC (DNA:RNA)
RNA: B3 RNA with C28A, A30G, A31C
DNA 1: CAATCTGAATTCCGGTCTCCC
DNA 2: TGGTGGCTACGACGGGATT
B12: CCUGACG (DNA:RNA)
RNA: B1 RNA with U25C, G26C
DNA 1: CAATCTGAATTCCGGTCTCCC
DNA 2: TGGTGGCTACGACGGGATT
B13: ACAACAC (DNA:RNA)
RNA: B3 RNA with G25A, G27A, C28A, A31C
DNA 1: CAATCTGAATTCCGGTCTCCC
DNA 2: TGGTGGCTACGACGGGATT
B14: GCGUGAG (DNA:RNA)
RNA: B3 RNA with C28U, C29G, A31G
DNA 1: CAATCTGAATTCCGGTCTCCC
DNA 2: TGGTGGCTACGACGGGATT
B15: UCGCAGU (DNA:RNA)
RNA: B3 RNA with G25U, C29A, A30G, A31U
DNA 1: CAATCTGAATTCCGGTCTCCC
DNA 2: TGGTGGCTACGACGGGATT
B16: GAAUUCG (DNA:RNA)
RNA: B1 RNA with U25G, G26A, U27A, G28U, A29U
DNA 1: CAATCTGAATTCCGGTCTCCC
DNA 2: TGGTGGCTACGACGGGATT
B17: CAAUGUG (DNA:RNA)
RNA: B1 RNA with U25C, G26A, U27A, G28U, A29G, C30U
DNA 1: CAATCTGAATTCCGGTCTCCC
DNA 2: TGGTGGCTACGACGGGATT
B18: CGGUGAG (DNA:RNA)
RNA: B3 RNA with G25C, C26G, C28U, C29G, A31G
DNA 1: CAATCTGAATTCCGGTCTCCC
DNA 2: TGGTGGCTACGACGGGATT
B19: AACCGCA (DNA:RNA)
RNA: B3 RNA with G25A, C26A, G27C, C29G, A30C
DNA 1: CAATCTGAATTCCGGTCTCCC
DNA 2: TGGTGGCTACGACGGGATT
B20: UUUUCGC (DNA:RNA)
RNA: B1 RNA with G26U, G28U, A29C, C30G, G31C
DNA 1: CAATCTGAATTCCGGTCTCCC
DNA 2: TGGTGGCTACGACGGGATT
B21: UAGUUGG (DNA:RNA)
RNA: B1 RNA with G26A, U27G, G28U, A29U, C30G
DNA 1: CAATCTGAATTCCGGTCTCCC
DNA 2: TGGTGGCTACGACGGGATT
B22: CGUAAAA (DNA:RNA)
RNA: B1 RNA with U25C, G28A, C30A, G31A
DNA 1: CAATCTGAATTCCGGTCTCCC
DNA 2: TGGTGGCTACGACGGGATT
B23: CGGGUAG (DNA:RNA)
RNA: B1 RNA with U25C, U27G, A29U, C30A
DNA 1: CAATCTGAATTCCGGTCTCCC
DNA 2: TGGTGGCTACGACGGGATT
B24: GCAUCUG (DNA:RNA)
RNA: B3 RNA with G27A, C28U, A30U, A31G
DNA 1: CAATCTGAATTCCGGTCTCCC
DNA 2: TGGTGGCTACGACGGGATT
B25: CUAUCAG (DNA:RNA)
RNA: B3 RNA with G25C, C26U, G27A, C28U, A31G
DNA 1: CAATCTGAATTCCGGTCTCCC
DNA 2: TGGTGGCTACGACGGGATT
B26: CCUCAAG (DNA:RNA)
RNA: B3 RNA with G25C, G27U, C29A, A31G
DNA 1: CAATCTGAATTCCGGTCTCCC
DNA 2: TGGTGGCTACGACGGGATT
B27: UACUAAC (DNA:RNA)
RNA: B1 RNA with G26A, U27C, G28U, C30A, G31C
DNA 1: CAATCTGAATTCCGGTCTCCC
DNA 2: TGGTGGCTACGACGGGATT
B28: GAUUCAG (DNA:RNA)
RNA: B3 RNA with C26A, G27U, C28U, A31G
DNA 1: CAATCTGAATTCCGGTCTCCC
DNA 2: TGGTGGCTACGACGGGATT
B29: AUGCUAG (DNA:RNA)
RNA: B3 RNA with G25A, C26U, C29U, A31G
DNA 1: CAATCTGAATTCCGGTCTCCC
DNA 2: TGGTGGCTACGACGGGATT
B30: CAGCAUG (DNA:RNA)
RNA: B3 RNA with G25C, C26A, C29A, A30U, A31G
DNA 1: CAATCTGAATTCCGGTCTCCC
DNA 2: TGGTGGCTACGACGGGATT
B31: GGCUCGA (DNA:RNA)
RNA: B3 RNA with C26G, G27C, C28U, A30G
DNA 1: CAATCTGAATTCCGGTCTCCC
DNA 2: TGGTGGCTACGACGGGATT

Changes are numbered by the printed parent chain; changes in the protein carry UniProt numbers. The list shows a part of the results.

The assay concerns the target T1, RBFOX1 RRM. Nature of the assay: EMSA; HiTS-Eq, 1 nM pool, 10 min; buffer printed only for the single-RNA assays: 10 mM Tris pH 7.5, 150 mM NaCl, 3.4 mM EDTA, 0.001% NP-40, 30 C. The conditions noted are these: tags: His6 N-terminal (pET28a); label: 5' 32P. In short, it runs like this:
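Purified RbFox RRM (wild type or mutant) was equilibrated for 10 min in 50 µL with 1 nM of a 5′-radiolabelled pool of RNA with 7 randomized nucleotides, its flanks annealed to DNA oligonucleotides, across increasing protein concentrations. Free RNA was separated by 8% native PAGE, excised, reverse-transcribed, PCR-barcoded and sequenced on an Illumina HiSeq 2500. Relative association constants came from read-count changes of each variant against the control reaction, normalised to the cognate motif.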
Consider B1, for which the binding signal was 0.0115 KA relative to UGCAUGU.

As to B2, the binding signal is 0.018 KA relative to UGCAUGU.

B3: the binding signal was 0.00989 KA relative to UGCAUGU.

In the case of B4, the binding signal was 0.012 KA relative to UGCAUGU.

As to B5, the binding signal is 0.00765 KA relative to UGCAUGU.

For B6, the binding signal is 0.0105 KA relative to UGCAUGU.

For B7, the binding signal is 0.00525 KA relative to UGCAUGU.

B8: the binding signal is 0.00238 KA relative to UGCAUGU.

As for B9, the binding signal is 0.0176 KA relative to UGCAUGU.

For B10, the binding signal was 0.00679 KA relative to UGCAUGU.

On to B11, for which the binding signal is 0.0172 KA relative to UGCAUGU.

For the molecule B12, the binding signal is 0.00968 KA relative to UGCAUGU.

For the molecule B13, the binding signal was 0.0017 KA relative to UGCAUGU.

With B14, the binding signal is 0.00976 KA relative to UGCAUGU.

For B15, the binding signal is 0.0131 KA relative to UGCAUGU.

As to B16, the binding signal is 0.00956 KA relative to UGCAUGU.

For B17, the binding signal is 0.00985 KA relative to UGCAUGU.

Regarding B18, the binding signal was 0.0102 KA relative to UGCAUGU.

Regarding B19, the binding signal was 0.00535 KA relative to UGCAUGU.

B20: the binding signal is 0.0207 KA relative to UGCAUGU.

Turning to B21, the binding signal is 0.0164 KA relative to UGCAUGU.

For B22, the binding signal is 0.000358 KA relative to UGCAUGU.

On to B23, for which the binding signal is 0.022 KA relative to UGCAUGU.

Consider B24, for which the binding signal is 0.0193 KA relative to UGCAUGU.

As for B25, the binding signal was 0.0125 KA relative to UGCAUGU.

Consider B26, for which the binding signal was 0.00422 KA relative to UGCAUGU.

As for B27, the binding signal was 0.0013 KA relative to UGCAUGU.

As to B28, the binding signal was 0.016 KA relative to UGCAUGU.

For the molecule B29, the binding signal is 0.0132 KA relative to UGCAUGU.

Take B30: the binding signal is 0.665 KA relative to UGCAUGU.

With B31, the binding signal was 0.033 KA relative to UGCAUGU.

Source of the values: publication PMC9911399, “Two distinct binding modes provide the RNA-binding protein RbFox with extraordinary sequence specificity”.
